Hit rate of the full screen: of about 100,000 compounds, about 250 (0.25%) were called active. Inconclusive results, whose numbers are uncertain, are shown with a selection of clear calls. Calls come from the whole dose curve; as a rule, active = well fitted inhibition curve with a large enough effect; inconclusive = small, poorly fitted or top-dose-only effect; inactive = flat fitted curve, though single readings scatter. Potencies of inconclusive entries are left out as doubtful fits.
The compounds below were run against Alanine aminotransferase 2 (Homo sapiens) (UniProt Q8TD30) (assay: Primary qHTS assay for inhibitors of Glutamate pyruvate transaminase 2 (GPT2)). Settings: Recombinant GPT2, coupled pyruvate oxidase/HRP Amplex Red fluorescence; series mostly up to 57.7 µM.
Sequence of UniProt Q8TD30 (Q8TD30 whole entry, looked up): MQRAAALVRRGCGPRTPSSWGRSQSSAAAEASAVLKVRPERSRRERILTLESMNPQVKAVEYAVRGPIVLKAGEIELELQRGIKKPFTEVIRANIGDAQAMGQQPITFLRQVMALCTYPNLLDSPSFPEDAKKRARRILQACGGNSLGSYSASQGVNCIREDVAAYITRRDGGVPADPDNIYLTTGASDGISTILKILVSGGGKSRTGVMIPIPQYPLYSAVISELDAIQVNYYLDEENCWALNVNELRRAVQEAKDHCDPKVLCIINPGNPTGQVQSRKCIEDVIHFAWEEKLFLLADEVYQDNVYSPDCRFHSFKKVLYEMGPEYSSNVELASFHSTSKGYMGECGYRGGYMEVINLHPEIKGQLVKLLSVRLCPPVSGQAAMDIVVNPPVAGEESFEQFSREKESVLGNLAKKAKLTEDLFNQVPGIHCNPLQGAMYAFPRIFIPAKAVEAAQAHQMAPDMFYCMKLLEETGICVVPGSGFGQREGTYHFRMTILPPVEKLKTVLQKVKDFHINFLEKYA
How it was run: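 Recombinant GPT2 (10ng/uL) with 250uM a-KG and 2mM L-alanine, 30 min at room temperature, in HEPES pH 7.5 buffer. Pyruvate detected by pyruvate oxidase/HRP/Amplex Red fluorescence after 30 min in the dark; AOA (50uM) as positive control.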
Note: nearly all actives have a fitted effect of over 60% in size.
Potency is the fitted concentration of half-maximal effect; tags give direction and shape of the fitted curve.

COc1ccc(F)c(C(=O)N2CCC3(CC2)[C@H](O)C[C@@H]3O)c1F was tested. Which Potency did it give?
The Potency was inconclusive [inhibitor, single point].

How did the Potency turn out when CNC(=O)[C@@H]1CN(C(=O)c2cc3cc(OC)ccc3[nH]2)C[C@H]1c1nc(C)no1 was run?
The Potency was inconclusive [inhibitor, single point].

Which Potency does the source give for Cc1ccc(CNC(=O)Cn2c(C)ccc(NS(=O)(=O)c3ccccc3)c2=O)cc1 here?
The Potency was inconclusive [inhibitor, partial curve, poor fit].

With Cc1c(-c2ccccc2F)[nH]c2ccc(CNC(=O)CCn3cnnc3)cc12 as the compound, how does the Potency read?
Its Potency is “inactive”.

COc1ccc(C(C)NC(=O)C2(c3ccc(NS(C)(=O)=O)cc3)CCCCC2)cc1 (stereo not given) was tested. Which Potency did it give?
The Potency was inconclusive [inhibitor, single point].

With O=C(NCCC1CCN(C(=O)Nc2ccc(F)cc2)CC1)c1ccc(F)cc1 as the compound, how does the Potency read?
The Potency was “inactive”.

For CC1COC(Nc2ccc3ncnc(Nc4ccc(OCc5nccs5)c(Cl)c4)c3c2)=N1 (stereo not given), which Potency is on record?
Its Potency is inconclusive [inhibitor, single point].

COc1ncccc1-c1cnc2[nH]cc(CC(=O)Nc3ccccc3C)c2c1 was tested. Which Potency did it give?
The Potency was inconclusive [inhibitor, single point].

Cc1noc([C@@H]2CN(C(=O)c3ccc(C(C)C)cc3)C[C@H]2CO)n1 was tested. Which Potency did it give?
The Potency was inconclusive [inhibitor, single point].

How did the Potency turn out when Cn1cnc2cc(-c3cccc(F)c3)cc(C(=O)NCc3cccnc3)c21 was run?
Its Potency is inconclusive [inhibitor, full curve, poor fit].

With O=C1NC2(Cc3ccccc31)CN(C(=O)c1ccccc1Cl)C2 as the compound, how does the Potency read?
The Potency was inconclusive [inhibitor, single point].

How did the Potency turn out when CC(=O)Nc1ccc(C2(C(=O)N3CCC(N4CCCCC4)CC3)CCCCC2)cc1 was run?
The Potency was inconclusive [inhibitor, single point].

For O=C(CCc1ccc(CC2CCN(Cc3c[nH]c4ccccc34)CC2)cc1)N1CCCC1, which Potency is on record?
The Potency was inconclusive [inhibitor, single point].

For Cc1cc(C(=O)NCC2CC2)c2c(C3CCCNC3)noc2n1 (stereo not given), which Potency is on record?
The Potency was “inactive”.

For O=C(CCC1CCN(C(=O)[C@H]2C[C@@H]3C=C[C@H]2C3)CC1)N1CCC(Cc2ccccc2)CC1, which Potency is on record?
Its Potency is inconclusive [inhibitor, single point].

For O=C(c1ccc2[nH]ccc2c1)N1CCN(C(=O)c2nnn3c2COC(c2ccccc2)C3)CC1 (stereo not given), which Potency is on record?
The Potency was “inactive”.

With CN(C)C(=O)c1cccnc1OC1CCN(C(=O)c2ccccc2Br)C1 (stereo not given) as the compound, how does the Potency read?
The Potency was inconclusive [inhibitor, full curve].

Which Potency does the source give for O=C(Cc1ccncc1)N1CCC2(CC1)NCCc1c2[nH]c2ccccc12 here?
The Potency was inconclusive [inhibitor, single point].

Which Potency does the source give for COCCNC(=O)CCc1c(C)nn(-c2cccc(C)c2)c1Oc1ccccc1C here?
Its Potency is “inactive”.

Which Potency does the source give for O=C(O)c1cc2c(s1)CCN(C(=O)c1ccc(F)cc1)C2 here?
Its Potency is “inactive”.

O=C(N[C@@H](Cn1cc(Cl)c(=O)[nH]c1=O)C(=O)O)C1CCCC1 was tested. Which Potency did it give?
The Potency was inconclusive [inhibitor, single point].

How did the Potency turn out when O=C1Nc2ccccc2CC12CCN([S+](=O)([O-])c1cccs1)C2 (stereo not given) was run?
The Potency was inconclusive [inhibitor, single point].

Cc1ccc(C(=O)N2CCC3(C2)C(=O)N(CCc2ccccc2)c2ccccc23)cc1 (stereo not given) was tested. Which Potency did it give?
Its Potency is inconclusive [inhibitor, partial curve, poor fit].

With O=C(Nc1cccc(-n2cccn2)c1)C1CCCN1C(=O)C1CC1 (stereo not given) as the compound, how does the Potency read?
Its Potency is “inactive”.

For C[C@]12CCC(=O)C=C1[C@@H]1C[C@@H]1[C@H]1[C@@H]3[C@@H]4C[C@@H]4[C@@]4(CCC(=O)O4)[C@@]3(C)CC[C@@H]12, which Potency is on record?
Its Potency is inconclusive [inhibitor, single point].

For COc1ccccc1C(=O)N1CCC2(CC1)NC(=O)N(Cc1ccc(F)cc1)C2=O, which Potency is on record?
Its Potency is inconclusive [inhibitor, single point].

For O=C(NCc1ccc(F)cc1)c1cn2cc(-c3ccc(C(F)(F)F)cc3)sc2n1, which Potency is on record?
Its Potency is inconclusive [inhibitor, single point].

For O=C(Nc1ccc(Cl)cc1)N1CCCC(c2nn(-c3ccc(F)cc3)c(=O)[nH]2)C1 (stereo not given), which Potency is on record?
The Potency was inconclusive [inhibitor, single point].

How did the Potency turn out when NC(CS)C(=O)O (stereo not given) was run?
Its Potency is inconclusive [inhibitor, full curve, poor fit].

COCCn1nc2n(c1=O)CCN(C(=O)c1ncccc1C)CC2 was tested. Which Potency did it give?
Its Potency is inconclusive [inhibitor, partial curve, poor fit].

How did the Potency turn out when c1ccc(-c2nc3ccncc3[nH]2)cc1 was run?
The Potency was “inactive”.

With CCN(CC)Cc1cnc2c(C(=O)NCc3ccsc3)cnn2c1 as the compound, how does the Potency read?
Its Potency is inconclusive [inhibitor, partial curve, poor fit].

With COc1ccc(OC)c(NC(=O)C2CC(=O)N(c3n[nH]c4cccc(F)c34)C2)c1 (stereo not given) as the compound, how does the Potency read?
Its Potency is “inactive”.

With CC1=C[C@@H](CC#N)[C@H](C(C)C)C[C@H]1CC(=O)NCc1ccccc1 as the compound, how does the Potency read?
The Potency was inconclusive [inhibitor, full curve, poor fit].

With CC(C)C1C(=O)NCCN1C(=O)c1coc(COc2ccc3c(c2)OCO3)n1 (stereo not given) as the compound, how does the Potency read?
The Potency was inconclusive [inhibitor, single point].

With CN(Cc1cccnc1)c1ccc2ncc(Nc3ccc(F)cc3)n2n1 as the compound, how does the Potency read?
The Potency was inconclusive [inhibitor, single point].

How did the Potency turn out when COc1cc(/C=C/C(=O)OC[C@H]2O[C@H](O[C@]3(CO)O[C@H](CO)[C@@H](O)[C@@H]3O)[C@H](O)[C@@H](O)[C@@H]2O)cc(OC)c1O was run?
The Potency was inconclusive [inhibitor, single point].

How did the Potency turn out when COc1ccc(NC(=O)c2ccc3c(c2)OCCN(CCC(C)C)C3)cn1 was run?
The Potency was “inactive”.

How did the Potency turn out when COCCCNC(=O)c1ccc2oc(-c3cccnc3)nc2c1 was run?
The Potency was “inactive”.

With CCOC(=O)CCCOc1cccn2c(=O)c(-c3cc(C)n(-c4ccc(Cl)cc4)n3)c(C)nc12 as the compound, how does the Potency read?
Its Potency is “inactive”.

For COc1ncccc1C(=O)N1CCCC(c2nnc(Cn3ccnc3)n2C)C1 (stereo not given), which Potency is on record?
Its Potency is inconclusive [inhibitor, partial curve, poor fit].

How did the Potency turn out when NC(=Nc1ccccc1)NC(=O)c1nc(Cl)c(N)nc1N was run?
Its Potency is inconclusive [inhibitor, single point].

For CC1(C(=O)N2CCOCC2)CN(Cc2ccccc2)Cc2ccc(Nc3ccccc3)nc21 (stereo not given), which Potency is on record?
Its Potency is inconclusive [inhibitor, single point].

For C[C@]12CCC(=O)C=C1CC[C@@H]1[C@H]2[C@@H](O)C[C@@]2(C)[C@H]1CC[C@]2(O)C(=O)CO, which Potency is on record?
The Potency was inconclusive [inhibitor, single point].

For CC1=NS(=O)(=O)N(C)C=C1C(=O)OCc1nc(-c2ccc(F)cc2)no1, which Potency is on record?
The Potency was “inactive”.

For COc1ccc(C2Cn3nnc(-c4noc(-c5cccs5)n4)c3CO2)cc1 (stereo not given), which Potency is on record?
The Potency was “inactive”.

With Cc1cnc(CC2CCN(C(=O)CCC3CCCC3)C2)n1CC1CC1 (stereo not given) as the compound, how does the Potency read?
Its Potency is inconclusive [inhibitor, full curve, poor fit].

How did the Potency turn out when O=C(c1ccccc1F)N1CCC2(CC1)CC(N(Cc1ccc(F)cc1)C1CC1)CCO2 (stereo not given) was run?
The Potency was “inactive”.

With O=S(=O)(Cc1ccccc1)N1CCC(Cc2nncn2-c2ccccc2)CC1 as the compound, how does the Potency read?
The Potency was inconclusive [inhibitor, single point].

For COc1cc(O)cc(OC2OC(CO)C(O)C(O)C2O)c1 (stereo not given), which Potency is on record?
The Potency was inconclusive [inhibitor, partial curve, poor fit].

With Cc1nc2scc(CC(=O)NC3CC3)n2c(=O)c1-c1cc(C)n(-c2ccccc2F)n1 as the compound, how does the Potency read?
The Potency was inconclusive [inhibitor, single point].

For COCCNC(=O)c1ccc2c(c1)N(C)C(CC(=O)N1CCCC1)CO2 (stereo not given), which Potency is on record?
The Potency was inconclusive [inhibitor, partial curve, poor fit].

OCCn1cc(-c2cnc3nnn(Cc4ccc5ncccc5c4)c3n2)cn1 was tested. Which Potency did it give?
Its Potency is inconclusive [inhibitor, single point].

Which Potency does the source give for CC[C@H](C)/C=C(C)/C=C/C1=CC2=C(Cl)C(=O)[C@](C)(O)[C@H](OC(C)=O)[C@H]2CO1 here?
The Potency was inconclusive [inhibitor, single point].

Which Potency does the source give for COC[C@H]1C[C@@H](NC(=O)Nc2ccc(C(F)(F)F)cc2)[C@H](O)[C@@H]1O here?
The Potency was “inactive”.

With CCCN(CC1CCOC1)C(=O)Nc1ccc2c(c1)OCCO2 (stereo not given) as the compound, how does the Potency read?
The Potency was “inactive”.

Which Potency does the source give for CCc1noc(-c2cccn3c(CNC(=O)c4ccccc4Cl)nnc23)n1 here?
Its Potency is “inactive”.

How did the Potency turn out when Cc1noc2c(NCCCn3ccnc3)cc(-c3ccc(Cl)cc3)nc12 was run?
The Potency was “inactive”.

With Cc1noc(-c2ccc3c(c2)OCO3)c1C(=O)NC(C)CCc1ccccc1 (stereo not given) as the compound, how does the Potency read?
The Potency was “inactive”.

How did the Potency turn out when Cc1ccc(NC(=O)Cn2ccn3nc(-c4ccc(F)cc4)c(CO)c3c2=O)c(C)c1 was run?
Its Potency is inconclusive [inhibitor, single point].

How did the Potency turn out when Cc1nnc2ccc(N3CCC(C)CC3)nn12 was run?
The Potency was inconclusive [inhibitor, single point].

With NCc1ccccc1-c1cnc2ccccc2c1 as the compound, how does the Potency read?
Its Potency is inconclusive [inhibitor, single point].

How did the Potency turn out when COc1cccc(CNC(=O)CCNc2cnc3cnccn23)c1 was run?
The Potency was inconclusive [inhibitor, partial curve].

Which Potency does the source give for Cn1cnc([S+](=O)([O-])N2CC(COc3ccccc3)C3(CN(c4ccccc4)C3)C2)c1 (stereo not given) here?
The Potency was inconclusive [inhibitor, single point].

With O=C(NCc1ccccc1Cn1cccn1)c1ccc2cccc(F)c2n1 as the compound, how does the Potency read?
The Potency was “inactive”.

— PubChem BioAssay AID1671188 (National Center for Advancing Translational Sciences (NCATS), 2021)
